Assay results from ChEMBL document CHEMBL4888484, “Replenishing the malaria drug discovery pipeline: Screening and hit evaluation of the MMV Hit Generation Library 1 (HGL1) against asexual blood stage Plasmodium falciparum ,using a nano luciferase reporter read-out” (2022).
About 540 (0.36%) of roughly 150,000 compounds showed an effect of 50% or more. This is one part of the list.

test system: Plasmodium falciparum; test: Primary screen in NF54 nanoGlo assay, in single point, at 2uM, 72h; a lower Z score goes with more inhibition; type: functional, Erythrocyte; settings: timepoint 72 hour

Row | Compound | % Inhibition [%] | Z score
1 | COCc1n[nH]c(-c2cccc3nc(C)ccc23)n1 | -4 | 0.66
2 | CN(CCc1noc(C2CC2)n1)C(=O)[C@H](N)c1ccccc1 | 3 | -0.37
3 | CCc1cc(N2CCCC2C(=O)N(C)C)nc(CN2CCCC2C(=O)N(C)C)n1 (stereo not given) | 2 | -0.14
4 | CCc1nc(CC(=O)O[C@H]2CCN(CCF)C2)cs1 | -2 | 0.24
5 | Cn1nccc1C(=O)N1CCC(CC2CC2)(NS(C)(=O)=O)CC1 | -7 | 1.29
6 | O=C1Cc2ccc(NS(=O)(=O)c3ccc4c(c3)NC(=O)CO4)cc2N1 | 0 | 0.06
7 | O=C(O)c1cnc2c(Cl)c(Cl)ccc2c1O | -2 | 0.27
8 | O=C(Cn1c(=O)ccc2cc(S(=O)(=O)N3CCCC3)ccc21)N1CCN(c2ncccn2)CC1 | -6 | 0.77
9 | C#CCN(C)C(=O)c1ccc(Cl)cc1C | -12 | 1.74
10 | Cc1ccccc1S(=O)(=O)Cc1nc(N(C)C)no1 | -2 | 0.26
11 | O=C(C1CCCCN1Cc1ccncc1)N1CCOC2CCCCC21 (stereo not given) | 1 | -0.23
12 | O=C(N[C@H]1CCS(=O)(=O)C1)c1ccccc1NC(=O)c1nsc2ccccc12 | -3 | 0.46
13 | CC1(C)C[C@H](NCCCNC(=O)c2cccc(O)c2)C(C)(C)O1 | 0 | -0.03
14 | CCc1nc(N2CCC[C@H](CNC(=O)c3ncccc3C)C2)no1 | -9 | 1.85
15 | NC(=O)c1ccncc1NC(=O)C1CC1c1ccco1 (stereo not given) | -3 | 0.56
16 | CN=C(NCc1cccc(OC)c1OC1CCCC1)NC[C@H](C)C#N | 0 | 0.03
17 | Cc1ccc(N2C[C@@H](c3nnc(NC(=O)Cc4ccc(Cl)cc4)o3)CC2=O)cc1 | 32 | -4.32
18 | Cc1nnc(N2CCC(c3nc4c(s3)CCC4)CC2)nc1C | -10 | 1.92
19 | Cc1nccn1-c1ncc(NC(=O)c2ccccc2F)cn1 | -12 | 1.86
20 | Cc1nc([C@@H]2CCCCCN2C(=O)Cc2cccc(F)c2)no1 | -17 | 1.42
21 | O=C(Cc1c[nH]c2ccccc12)NC1(C(=O)N2CC(O)C2)CCCC1 | 10 | -0.98
22 | CN(CC(=O)Nc1ccc(Cl)cc1F)C1C2CCOC2C1(C)C (stereo not given) | -7 | 1.13

Row | Compound | % Inhibition [%] | Z score
23 | Cn1c(C(=O)NCCCN2CCCC2=O)cc2c1CCN(Cc1ccccc1)C2 | -12 | 1.41
24 | CC[C@@]1(C)CC(=O)N(Cc2nnn(C)n2)C1=O | 1 | -0.13
25 | Cc1cc(COc2cccc(S(C)(=O)=O)c2)on1 | 5 | -0.49
26 | CCCCN1C(=O)CC[C@@H]2CN(C(=O)c3ncoc3C3CC3)CC[C@@H]21 | 1 | -0.23
27 | CN(Cc1ccccc1Cn1cccn1)Cc1nncn1C | 1 | -0.18
28 | O=C1CN(C(=O)c2ccc(Cl)o2)c2ccccc2N1 | -3 | 0.39
29 | C[C@H](O)CCNc1ccc(Br)cc1C#N | -4 | 0.53
30 | CC(C)(C)NC(=O)N(Cc1ccc(F)cc1)C[C@H]1CC(c2ccccc2)=NO1 | -27 | 2.41
31 | CCCNC(=O)c1coc(CN2CCN(Cc3ccccc3C(F)(F)F)CC2)n1 | -11 | 2.2
32 | CC1CCCC(NC2CCN(Cc3ccccc3)CC2)C1 (stereo not given) | -7 | 1.38
33 | Cc1cc(NC(=O)CN2CCN(S(=O)(=O)c3ccc(F)cc3)CC2)on1 | -3 | 0.43
34 | CCNc1nc(C(N)=O)c(NC(=O)c2cc(-c3ccccc3)nc3ccccc23)s1 | -9 | 1.27
35 | CC[C@H](O)Cn1nnnc1Cc1cc(Br)ccc1OC | -10 | 1.06
36 | Cc1ccc(CNC(=O)[C@H]2CCCN(C(=O)c3nnc(C(=O)Nc4ccc5c(c4)OCO5)s3)C2)cc1 | -27 | 2.39
37 | Cc1cccc(NC(=O)CC(=O)NCCCc2c(C)n[nH]c2C)c1C | 13 | -2.52
38 | O=C(Nc1ccc(N2CCN(C(=O)C3CCCC3)CC2)nc1)c1ccc(F)cc1F | -1 | 0.22
39 | Cn1nc(C(=O)N2CC(OCC(F)(F)F)C2)ccc1=O | -11 | 1.69
40 | Cc1nn(C)c(C)c1CN[C@H]1CS(=O)(=O)C1(C)C | 8 | -1.66
41 | C[C@](O)(CNC(=O)c1ccc(-c2ccsc2)cc1)c1ccc2c(c1)OCO2 | -11 | 1.97
42 | Cn1nnc2c(N3CCN(S(=O)(=O)c4cccnc4)CC3)ncnc21 | -5 | 0.79
43 | Cc1ccc(Cl)cc1N1CCN(C(=O)c2ccc3c(c2)CCN3S(=O)(=O)c2ccccc2)CC1 | -7 | 1.29
44 | COc1cc2c(cc1OC)CN(c1ncnc3[nH]ncc13)CC2 | 3 | -0.28

Row | Compound | % Inhibition [%] | Z score
45 | Cc1nc(NC2CCCCC2)sc1C(=O)Nc1ccccc1 | 1 | -0.19
46 | CC(C)c1sc(NC(=O)N2CC[C@H](O)C2)nc1-c1ccccc1 | 1 | -0.11
47 | CC(=O)Nc1cccc(-c2ncnc3sccc23)c1 | -4 | 0.47
48 | CCN(Cc1ccc(OC)c(OC)c1)C(=O)c1cccc(NS(=O)(=O)c2ccccc2)c1 | -6 | 0.92
49 | OCc1ccccc1-c1nccc2occc12 | -10 | 0.95
50 | CCC(CC)(CO)CNC(=O)c1ccc2c(c1)COCO2 | -1 | 0.16
51 | COC[C@H]1CCCN1C(=O)c1cc(C)oc1-c1ccccc1 | 1 | -0.26
52 | CCN1CCC[C@@H]1CNC(=O)c1ccccn1 | -9 | 1.01
53 | CCc1nccc(-c2nccn2Cc2cnn(CC)c2)n1 | 4 | -0.53
54 | Cc1c(C)n(Cc2ccccc2)c2ccc(C(=O)N3CCc4ccccc4C3)cc12 | 8 | -1.01
55 | CC(C)(C)c1cc2n(n1)CCN(CCOc1cccc(C(=O)O)c1)C2 | -2 | 0.45
56 | O=C1C[C@H](NC(=O)c2cc3n(n2)CCCO3)CN1 | -10 | 1.49
57 | CCCOCC(=O)NC[C@H](O)c1c(Cl)cccc1Cl | 3 | -0.26
58 | O=C(Nc1ccc(C(F)(F)F)cc1)c1cn(C[C@H](O)c2cccs2)nn1 | -5 | 0.91
59 | C[C@H](O)CNC(CC1CCN(C(=O)OC(C)(C)C)CC1)c1cccnc1 (stereo not given in full) | -12 | 1.62
60 | O=C(NCCN1CCOCC1)c1cc2cn(C3CCCC3)cc2s1 | -2 | 0.47
61 | Cc1ccc(S(=O)(=O)N2CCN(C(=O)Cc3ccc(S(=O)(=O)N4CCOCC4)s3)CC2)cc1 | -7 | 0.77
62 | Cc1cc(CN(C)C(=O)Cn2ncc(N3CCc4ccccc4C3)cc2=O)on1 | 10 | -0.93
63 | Cc1ccc(-c2nnc(C)c(N3CCCCC3)n2)cc1 | -2 | 0.38
64 | Cc1nnc(N[C@@H](C)CCc2ccccc2)c(C#N)c1C | -7 | 1.39
65 | Cc1cnn(CCC(=O)N2CCC([C@H]3[C@@H](Oc4ccccc4)CN3C(C)C)CC2)c1 | 3 | -0.31
66 | CCn1ncnc1[C@@H](NC(=O)c1ccc2c(c1)OCO2)C1CC1 | 4 | -0.55

Row | Compound | % Inhibition [%] | Z score
67 | O=C(NC1CCN(c2ccccc2C(=O)N2CCN(C3CCCCCC3)CC2)CC1)c1cccc(F)c1 | 1 | -0.12
68 | CN1C[C@@H](N)C[C@H]1c1nc(COc2ccc(F)cc2)nn1CC(F)(F)F | 1 | -0.2
69 | C#CC(CC)(CC)NC(=O)c1cccc(Cl)c1 | -6 | 0.77
70 | CC[C@](O)(CCCO)CNC(=O)c1nccn1C | -4 | 0.66
71 | Cc1ncsc1-c1ccc(CN[C@H]2CCO[C@@H]2c2cc[nH]n2)cc1 | -2 | 0.2
72 | CC(C)N1C(=O)N[C@]2(CCN(CCOCC(F)(F)F)C2)C1=O | -12 | 2.09
73 | CCc1onc(C)c1[C@@H]1CCCN1C(=O)Nc1cccc(F)c1 | 4 | -0.51
74 | CCn1c(Cn2cnc(C(=O)OC)n2)nc2c(F)cccc21 | -14 | 2.68
75 | Cc1ccsc1C(=O)Nc1cnn(-c2ncc(Cl)cc2Cl)c1 | -22 | 4.17
76 | O=C(Nc1cnns1)[C@H]1CCC(=O)N(C2CC2)[C@@H]1c1ccncc1 | -3 | 0.48
77 | CS(=O)(=O)N1CCN(C(=O)NCC[C@H](O)c2cccc(Cl)c2)C1=O | -18 | 2.33
78 | CCCC1(CNc2cncc(C(N)=O)n2)CCC1 | -6 | 1
79 | O=C(NCCS(=O)(=O)c1ccc(F)cc1)c1n[nH]c2c1CCC2 | -18 | 2.64
80 | C[C@H](NC(=O)C1CCN(S(=O)(=O)Cc2ccccc2)CC1)c1ccccc1 | -15 | 2.74
81 | COc1nccnc1N1CC[C@]2(CCOC2)C1 | -2 | 0.25
82 | O=C1c2cc(Cl)c(Cl)cc2C(=O)N1c1cccc(Oc2ccccc2)c1 | -21 | 3.6
83 | O=C(Cn1cnnn1)Nc1ccc(N2C(=O)c3ccccc3C2=O)cc1 | 2 | -0.38
84 | O=C(NC1CCCCC1)[C@H]1CNC[C@@H](COc2cccc(F)c2)C1 | -5 | 0.95
85 | Cc1nccc(-c2cccc(NC(=O)Cc3cc(Cl)c4c(c3)OCCCO4)c2)n1 | -51 | 6.03
